Results published in the RNAGym collection of RNA variant scans (doi:10.1093/nar/gkz1192).
The source gives no read counts; variants with many changes may rest on few reads.

B1: CPEB3 Ribozyme (parent)
chain: UAACAGGGGGCCACAGCAGAAGCGUUCACGUCGCAGCCCCUGUCAGAUUCUGGUGAAUCUGCGAAUUCUGCUGUAUAUCUC

Variants of: B1
Test: self-cleavage, relative activity (ratio to wild type); higher = more cleavage; in vitro, sequencing
In short: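 Barcoded CPEB3 ribozyme mutants, produced by rounds of error-prone PCR, self-cleaved while being transcribed with T7 RNA polymerase for 5 hours at 37°C and during a subsequent 15 min DNase I step before EDTA was added. Sequencing of template-switched cDNA on Illumina gave cleaved and total reads, and DNA sequencing assigned barcodes to variants. Each variant's relative activity is its cleaved/total read fraction divided by the unmutated ribozyme's fraction, averaged across three batches. A variant needed a minimum of 5 reads.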

Variant	self-cleavage
A5G U43C A64U	0.45
A5G U43C A75G	0.32
A5G U43C G53U A56G	0.55
A5G U43C U49C U54C	0.19
A5G U43C U58C C59G	0.08
A5G U43C U74C	0.41
A5G U43G U76G U80C	0.32
A5G U48A A64G U72A	0.17
A5G U48A U54C A65G	0.07
A5G U48C A56G U80C	0.36
A5G U48C A56U A57G	0.58
A5G U48C A56U U67A U74A U78C	0.12
A5G U48C A64U U80A	0.22
A5G U48C A65G	0.28
A5G U48C C62U A65G	0.14
A5G U48C U51G U76C	0.06
A5G U48C U54A U74C A75C	0.98
A5G U48C U54G	0.36
A5G U48C U60A A64U	0.16
A5G U48C U66G	0.16
A5G U48C U80C	0.48

Variant	self-cleavage
A5G U48G U66A	0
A5G U49A A57G	0.19
A5G U49A U60A U67G	0.1
A5G U49C A64G U78C	0.61
A5G U49C A75U	0.3
A5G U49C G53A A56U	0.26
A5G U49C G55U U78C	0.26
A5G U49C U51A A64U	0.14
A5G U49C U60A U78A U80C	0.07
A5G U49C U69C U74C U78C	0.05
A5G U51A A56G	0.32
A5G U51C A57G U69A U74A U78C	0.23
A5G U51C A75G	0.66
A5G U51C U58A	0.19
A5G U51C U58C	0.18
A5G U51C U60A	0.14
A5G U51C U66A U78C	0.1
A5G U51C U80A	0.56
A5G U51C U80C	0.9
A5G U51G A57G U80C	0.05
A5G U54A C79U	1.02

Variant	self-cleavage
A5G U54C A65G U72C	0.23
A5G U54C U60G	0.14
A5G U54G U69A	0.15
A5G U58A G61A	0.31
A5G U58C U66C U72C	0.19
A5G U60A U69C	0.13
A5G U60A U80C	0.57
A5G U60C A65G U74A	0
A5G U60C U78C	0.21
A5G U66C A77U	0.13
A5G U66C C68A	0.5
A5G U67A A77G	0.71
A5G U67C U69C	0.27
A5G U67C U74A	0.41
A5G U69A U76C U80A	0.57
A5G U69C U72A	0.66
A5G U69C U72C	0.19
A5G U72A U80C	1
A5U A13C A28U	1.1
A5U A13G A15G U51A U54C U66C	0.06
A5U A13G A18G U25C A56U	0.08

Variant	self-cleavage
A5U A13G A18G U43C	0.42
A5U A13G A20G A56G	0.46
A5U A13G A20U	0.24
A5U A13G A20U U25C U31C A56G A65G	0.07
A5U A13G A28G A64U	0.22
A5U A13G A28U U54A	0.9
A5U A13G A56G A65G U74C U80C	0.37
A5U A13G A64U U69C	0.23
A5U A13G C32G C38U A47G	0.21
A5U A13G C37G G42A U72A U76A	0.14
A5U A13G G19C	0.39
A5U A13G G46A	0.48
A5U A13G G52A U72C A75G	0.63
A5U A13G G53A U72C A75G	1.07
A5U A13G G70C U78C	0.19
A5U A13G U25A C34G U51C	0.32
A5U A13G U25C U41A A56U G63C U66C	0.09
A5U A13G U25C U49A U74C U78C	0.04
A5U A13G U25C U58C	0.43
A5U A13G U26C C32U U51G G63A	0.04
A5U A13G U31A A45G	0.66
